Paper PMC4336329 (PLoS ONE, 2015)
Out of some 310,000 compounds screened, about 2,200 (0.71%) showed an effect of 50% or more. Effects have a minus sign here. The list shows a part of the results.

These compounds were tested against human ether-à-go-go-related gene (hERG) potassium channel (human, UniProt Q12809) (assay: primary screen, population patch clamp on CHO cells stably expressing hERG).
Chain of human ether-à-go-go-related gene (hERG) potassium channel (Q12809 whole entry, looked up): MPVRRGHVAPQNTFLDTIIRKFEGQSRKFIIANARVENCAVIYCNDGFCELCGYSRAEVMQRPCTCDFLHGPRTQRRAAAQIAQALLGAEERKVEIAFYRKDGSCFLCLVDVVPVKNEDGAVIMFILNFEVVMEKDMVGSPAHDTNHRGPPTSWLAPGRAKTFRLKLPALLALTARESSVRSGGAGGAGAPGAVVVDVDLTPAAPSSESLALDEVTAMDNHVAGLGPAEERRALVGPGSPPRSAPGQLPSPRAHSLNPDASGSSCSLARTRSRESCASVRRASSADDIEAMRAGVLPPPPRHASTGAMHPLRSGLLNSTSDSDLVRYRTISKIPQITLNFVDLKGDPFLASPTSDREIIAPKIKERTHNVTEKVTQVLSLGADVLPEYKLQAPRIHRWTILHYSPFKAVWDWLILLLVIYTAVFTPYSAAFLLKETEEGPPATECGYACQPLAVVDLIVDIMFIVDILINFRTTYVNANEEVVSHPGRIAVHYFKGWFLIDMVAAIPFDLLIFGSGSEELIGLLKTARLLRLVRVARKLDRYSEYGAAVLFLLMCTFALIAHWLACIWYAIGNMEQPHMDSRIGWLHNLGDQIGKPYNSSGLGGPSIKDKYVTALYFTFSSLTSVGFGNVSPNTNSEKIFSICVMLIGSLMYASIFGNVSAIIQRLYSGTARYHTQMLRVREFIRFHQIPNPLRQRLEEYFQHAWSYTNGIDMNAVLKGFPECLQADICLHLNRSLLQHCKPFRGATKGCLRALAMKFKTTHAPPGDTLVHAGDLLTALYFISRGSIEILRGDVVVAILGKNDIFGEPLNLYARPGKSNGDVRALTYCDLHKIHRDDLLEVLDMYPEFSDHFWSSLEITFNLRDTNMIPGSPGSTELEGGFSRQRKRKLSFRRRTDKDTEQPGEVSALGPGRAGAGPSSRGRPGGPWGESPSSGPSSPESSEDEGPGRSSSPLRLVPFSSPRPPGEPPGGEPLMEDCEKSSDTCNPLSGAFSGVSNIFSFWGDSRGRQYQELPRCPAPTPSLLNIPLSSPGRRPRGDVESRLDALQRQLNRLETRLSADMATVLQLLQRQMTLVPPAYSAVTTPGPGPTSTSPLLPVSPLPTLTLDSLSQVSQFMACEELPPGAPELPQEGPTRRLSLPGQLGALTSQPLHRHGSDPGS

Row | SMILES | hERG current change (%, negative = inhibition) at 1uM [%]
1 | O=C(C1CCN(c2nc(-c3ccccc3)nc3c2CCC3)CC1)N1CCC(O)CC1 | -6.37
2 | O=C(NCCC1=CCCCC1)c1cc2ccccc2oc1=O | 11.7
3 | O=C(NCc1ccc(Cl)cc1)c1cc([N+](=O)[O-])ccc1Cl | 15.8
4 | CCOc1ccc(/C(O)=C2/C(=O)C(=O)N(CCN(C)C)C2c2ccccc2)cc1Cl (stereo not drawn) | -0.667
5 | COc1ccc(SC[C@H](CC(C)C)N2CCN(C)CCC2=O)cc1 | -9.72
6 | Cc1cc2ccccc2c(=O)n1CC(=O)NCc1ccco1 | 18.5
7 | Cc1nc2n[nH]c(N)c2c2c1CCCC2 | 9.17
8 | CC(=O)N1CCc2cc(S(=O)(=O)NC(Cc3ccccc3)C(=O)NCCN3CCCCC3C)ccc21 (stereo not drawn) | 6.91
9 | CCNC(=O)CC1C(=O)N(c2ccc(F)cc2)C(=O)N1CCc1ccc(OC)cc1 (stereo not drawn) | -10.2
10 | COc1ccccc1C1=NCc2nnc(C)n2-c2ccc(Cl)cc21 | 12.4
11 | CCN(CC)CCN1C(=O)c2ccccc2NC1c1cccc(F)c1 (stereo not drawn) | -48.3
12 | COCc1cc(C)nc2sc3c(=O)n(-c4cccc5ccccc45)nnc3c12 | 6.97
13 | CCN1C(=O)/C(=C/c2cccs2)SC1=Nc1ccc(OC)cc1 | -2.52
14 | COc1ccc(-n2c(/C=C/c3ccc4c(c3)OCO4)nc3ccccc3c2=O)cc1 | -9.35
15 | CNC(=O)c1[nH]cnc1C(=O)Nc1ccc(OC)cc1 | 18.8
16 | COc1cccc(OC)c1OCCN1CCCC1 | 17.7
17 | C=CCNC(=S)/N=c1/scc(C)n1C | 0.655
18 | CC(C)(C)C(=O)Nc1nnc(CC(=O)NCc2ccccc2)s1 | 5.42
19 | CC1CN(C(=O)CCC(=O)N2CCN(c3ccccn3)CC2)c2ccccc2O1 (stereo not drawn) | 9.88
20 | Cc1cc(=O)oc2cc(OCC(=O)NC3CCCC3)ccc12 | -18.4
21 | COc1ccc(C2=NOC(C(=O)Nc3ccc(C(C)=O)cc3)C2)cc1OC (stereo not drawn) | -1.99
22 | O=C(Nc1c2c(nc3ccccc13)CCCC2)c1ccccc1Br | 8.91
23 | CCCn1c(N)c(C(=O)COc2ccc(Br)cc2F)c(=O)n(C)c1=O | 0.814

Row | SMILES | hERG current change (%, negative = inhibition) at 1uM [%]
24 | Cc1cc2nc(Sc3c([N+](=O)[O-])nc(C)n3Cc3ccccc3)[nH]c2cc1C | 11
25 | O=C(COC(=O)/C=C/c1ccc(OC(F)F)cc1)NC1CCCCCCC1 | 9.31
26 | O=C(/C=C/c1ccc2ccccc2n1)N1CCN(S(=O)(=O)c2ccc(F)cc2)CC1 | -5.65
27 | Cc1nn(-c2ccc(Cl)c(Cl)c2Cl)c(=O)c2ccccc12 | -1.02
28 | O=C(NCc1ccco1)C12CC3CC(C1)CC(C(=O)NCc1ccco1)(C3)C2 | 7.89
29 | Cc1ccc2[nH]c(=O)cc(C(=O)OCC(=O)c3ccc(F)cc3)c2c1 | 3.99
30 | CCc1ccc(OCC(=O)NNC(=O)CSc2ncnc3sc(C)c(C)c23)cc1 | 4.36
31 | O=C(CN1C(=O)NC2(CCCCC2)C1=O)Nc1ccc(F)cc1 | -1.97
32 | Cc1nnc(N2CCc3ccccc3C2)[nH]c1=O | 2.63
33 | O=C(NC1CCCCC1)c1cc(S(=O)(=O)N2CCOCC2)c(Cl)cc1Cl | 24.2
34 | COC(=O)C1=C(c2ccc(Cl)c(C(F)(F)F)c2)C[C@@H]2CC[C@H]1N2C(=O)NC1CC1 | 8.33
35 | COc1cc(OC)c(NC(=O)C2CCCO2)cc1Cl (stereo not drawn) | 5.2
36 | Cc1cc2nnc(SCC(=O)NCc3cccs3)n2c(N)n1 | -7.33
37 | C=C(C)Cn1c(-c2ccncc2)n[nH]c1=S | 13.7
38 | COc1ccc(C)cc1N1CC(C(=O)Nc2ccccc2N2CCCCC2)CC1=O (stereo not drawn) | -0.99
39 | CN(CCOc1ccc(Br)cc1)CC(O)COc1ccc(C#N)cc1 (stereo not drawn) | 7.66
40 | O=C(NCc1cccnc1)C1CCCCN1S(=O)(=O)c1ccc(F)cc1 (stereo not drawn) | -9.57
41 | COc1ccc(-c2nc(-c3ccccc3)no2)c(OC)c1 | 6.88
42 | CS(=O)(=O)c1nc2c(cc1C#N)CCCC2 | 11.4
43 | COc1ccc2c3n(nc2c1)CCN=C3c1ccc(C)cc1 | 0.515
44 | O=C(N/N=C/c1cn(Cc2ccccc2)c2ccccc12)c1ccncc1 | 12.3
45 | O=C(c1ccc(CSc2nc3ccncc3[nH]2)cc1)N1CCCCCC1 | -0.856
46 | COC(=O)c1ccccc1S(=O)(=O)NC(=O)c1ccccc1 | 1.38

Row | SMILES | hERG current change (%, negative = inhibition) at 1uM [%]
47 | Cc1ccc(-c2noc(C3CCCN(C(=O)c4ccccc4)C3)n2)o1 (stereo not drawn) | 6.19
48 | COc1ccc(CC(=O)Nc2ccccc2N2CCOCC2)cc1OC | 17.2
49 | CCN(CC)CCOC(=O)C12CC3CC(CC(C3)C1)C2 | 2.53
50 | CCN1C(=O)CC(N2CCC(c3nc4ccccc4[nH]3)CC2)C1=O (stereo not drawn) | 2.33
51 | COC(=O)[C@@]1(Cc2ccc(OC)cc2)[C@H]2c3cc(C(=O)N4CCCC4)n(CCSCCO)c3C[C@H]2CN1C(=O)c1ccccc1 | 4.2
52 | O=C(CSc1nc(-c2ccccc2F)nc2nc[nH]c12)Nc1c(Cl)cc(Cl)cc1Cl | -2.56
53 | Cc1ccc2c(c1)N(CCC(=O)NCc1ccco1)C(=O)CO2 | -0.237
54 | CC(C)(C)NC(=O)c1cnn2c1NC(c1ccc(F)cc1)CC2C(F)(F)F (stereo not drawn) | 2.59
55 | N#C/C(=C/c1ccc(N2CCCCCC2)o1)c1ccc(F)cc1 | 16.2
56 | CC(NS(=O)(=O)c1ccc(Br)cc1)C(=O)NCc1ccco1 (stereo not drawn) | 6.69
57 | CC(Sc1ccc2ccccc2c1)C(=O)NC(N)=O (stereo not drawn) | 10.5
58 | COC(=O)C(C)N(C#N)c1nc(NC(C)C)nc(SC)n1 (stereo not drawn) | 7.39
59 | Cc1cc(C(F)(F)F)nn1Cc1n[nH]c(=S)n1-c1ccc(Cl)cc1 | 17
60 | CCc1noc(C)c1C(=O)N1CCCC(CCC(=O)NCc2cccc(OC)c2)C1 (stereo not drawn) | 15.5
61 | O=C(NCc1ccccc1F)c1cccc(S(=O)(=O)N2CCCCCC2)c1 | 8.04
62 | Cc1ccc(-c2cc(C#N)c(=O)n(Cc3c(Cl)cccc3Cl)c2)cc1 | 8.11
63 | COc1ccccc1N1CCN(S(=O)(=O)c2cn(C)cn2)CC1 | 16.6
64 | CC(C)(C)N=C1NN=C(c2cc3ccccc3o2)CS1 | 9.44
65 | Cc1ccc(-n2nc(C(=O)O)cc2-c2ccccc2Cl)cc1 | 18.9
66 | O=C(CN1CC(c2ccccc2)CC1=O)OCc1ccccc1F (stereo not drawn) | 2.02
67 | COc1ccc(NC(=O)[C@H](CCS(C)(=O)=O)N2Cc3ccccc3C2=O)c(OC)c1 | 18.2
68 | CCC(Sc1ccc2nnc(-c3ccc(OC)c(OC)c3)n2n1)C(=O)O (stereo not drawn) | -4.86
69 | COc1ccc(OCc2nnc3n2N=C(c2ccccc2)C(CC(=O)O)S3)cc1 (stereo not drawn) | 13.8

Row | SMILES | hERG current change (%, negative = inhibition) at 1uM [%]
70 | C=CCn1c(CCNC(=O)c2ccc(Cl)c(Cl)c2)nnc1SCCOc1ccc(OC)cc1 | -2.86
71 | Cc1cccc(N2C(=O)CCC2=O)n1 | -1.13
72 | O=C(Nc1ccc(S(=O)(=O)N2CCN(Cc3ccccc3)CC2)cc1)c1cnccn1 | 12.7
73 | Cc1ccc(CN2CCN(Cc3cnc(C)s3)CC2CCO)o1 (stereo not drawn) | 6.85
74 | Cc1ccc(S(=O)(=O)C2(C(=O)NC3CCCCC3)CC2)cc1 | 8.66
75 | Clc1ccc(-c2cn3c(n2)CCC3)cc1 | 0.47
76 | CCOC(=O)N1CCN(S(=O)(=O)c2ccc3c(c2)SC(C)C(=O)N3)CC1 (stereo not drawn) | 18.7
77 | COc1ccc(CC(=O)NCc2nnc(SCc3ccc(C)cc3)n2C)cc1 | 10.4
78 | CCN(CC(=O)NCCc1ccccc1)S(=O)(=O)c1ccc(C)cc1 | -9.05
79 | CCN(CC)S(=O)(=O)c1ccc(/C=C/C(=O)OCC(=O)N(C)C)cc1 | 11.7
80 | COCCn1c(SCc2ccc(C(=O)OC)o2)nnc1-c1c[nH]c2ccccc12 | 8.45
81 | O=[N+]([O-])c1ccc(N2CCN(C(=S)Nc3ccc(F)cc3F)CC2)cc1 | 13.5
82 | CCCc1[nH]nc2c1C(c1cc(OC)ccc1F)C(C#N)=C(N)O2 (stereo not drawn) | 6.14
83 | CCCNC(=O)C(Cc1ccc(OC)cc1)NC(=O)c1ccc(C#N)cc1 (stereo not drawn) | -21.9
84 | Cc1ccc(NC(=O)N2CCCC2C(=O)Nc2ccc3c(c2)OCCO3)cc1 (stereo not drawn) | 14.2
85 | O=C(COC(=O)c1ccc(Cl)c(S(=O)(=O)N2CCCCC2)c1)NCc1ccco1 | -0.846
86 | CC(C)c1ccc(C(=O)NNC(=O)c2n[nH]c(=O)c3ccccc23)cc1 | 9.08
87 | Cc1ccc(-c2csc3nc(CN(C)Cc4ccccc4)[nH]c(=O)c23)cc1 | 20.1
88 | O=C(NCc1ccco1)c1cc2ccccc2o1 | 8.9
89 | CCn1c(SCC(=O)Nc2nc(C)cs2)nnc1-c1ccoc1C | 10.4
90 | Cc1ccn2c(NC3CCCC3)c(-c3ccncc3)nc2c1 | 4.53
